Measurements published in PubChem BioAssay (NCI).
Where “and” joins values, the source holds several entries; their conditions need not be identical. Equal values may be shown once.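 Exposure lasted 48 hours, with cells grown in 96-well plates and compounds tested at five concentrations. Here, GI50 denotes the concentration required for 50% inhibition of growth. TGI is the concentration that stops growth completely.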

Test system: NCI-H322M lung
Assay: NCI-60 cell line screen, 48 h

Q: Which TGI does the source give for `O=C(O)c1cccc(CC(Br)C(=O)O)c1` (centres undefined) here?
A: > 100 µM

Q: How did the TGI turn out when `COC(=O)/C=C(\S/C(=C(/c1ccc(OC)cc1)n1cc(C(=O)OC)c(C(=O)OC)n1)c1ccc(OC)cc1)C(=O)OC` was run?
A: > 100 µM

Q: Which TGI does the source give for `Cc1nc2ccc(N=NN(C)C)cc2[nH]1` here?
A: > 100 µM

Q: Which TGI does the source give for `COC(=O)c1nc2c3c(cccc3c1C(=O)OC)Nc1ccccc1-2` here?
A: > 100 µM

Q: How did the TGI turn out when `Cc1ccccc1NC(=O)/C(C#N)=N\Nc1nc[nH]c1C(N)=O` was run?
A: > 100 µM

Q: How did the GI50 turn out when `CCCCCCCCCCCCCCCCOCCCOP(=O)(O)C1CCCN(O)C1=O` (centres undefined) was run?
A: 0.89 µM

Q: And the TGI?
A: 15.3 µM

Q: Which TGI does the source give for `C#C[C@]1(O)CC[C@H]2[C@@H]3CCC4=C/C(=N\OCCN5CCCC5)CC[C@]4(C)[C@H]3CC[C@@]21C` here?
A: 38.2 µM

Q: `COC1CC2CCC(C)[C@](O)(O2)C(=O)C(=O)N2CCCCC2C(=O)OC(C(C)CC2CCC(O)C(OC)C2)CC(=O)C(C)C=C(C)C(OC(=O)CN(C)C)C(OC)C(=O)C(C)CC(C)/C=C/C=C/C=C\1C` (some centres undefined) was tested. Which TGI did it give?
A: 23.1 µM

Q: Which TGI does the source give for `O=C1c2ccccc2C(=O)c2nc(-c3ccccc3)c(-c3ccccc3)nc21` here?
A: > 100 µM

Q: Which TGI does the source give for `Cc1ncc([N+](=O)[O-])n1CCNC(=O)CCn1ccnc1[N+](=O)[O-]` here?
A: > 100 µM

Q: For `CCCCCNC1=CC(=O)c2ccccc2C1=O`, which TGI is on record?
A: > 100 µM

Q: Which GI50 does the source give for `Cc1cccc(N=C2c3cc([N+](=O)[O-])ccc3-c3c2cc([N+](=O)[O-])cc3[N+](=O)[O-])c1` here?
A: 13.9 µM

Q: What about the TGI of the same compound?
A: 32.4 µM

Q: `COc1ccc(-c2nc(-c3nc4cc(C)c(C)cc4[nH]3)cc3c2[nH]c2ccccc23)cc1` was tested. Which GI50 did it give?
A: 8.11 µM

Q: What about the TGI of the same compound?
A: > 100 µM

Q: With `C[C@H](CCC1=NCCN1)[C@H]1CC[C@H]2[C@@H]3CC[C@@H]4C[C@H](O)CC[C@]4(C)[C@H]3CC[C@]12C` as the compound, how does the TGI read?
A: 24.2 µM

Q: `O=C1C=CC2(C=C1)CCN=c1c(O)c3c(c(O)c12)=NC=N3` was tested. Which GI50 did it give?
A: 16 µM and > 100 µM

Q: And the TGI?
A: 29.8 µM and > 100 µM

Q: How did the TGI turn out when `COC(=O)c1c(C(=O)OC)c(C(c2ccccc2)c2ccccc2)n(-c2ccccc2)c1Cl` was run?
A: > 10 µM

Q: `CCOC(=O)c1c(Cl)c2c(n1Cc1cc(OC)cc(OC)c1)-c1oncc1CCC2` was tested. Which GI50 did it give?
A: 0.48 µM

Q: What about the TGI of the same compound?
A: > 100 µM

Q: `COC(=O)C(=O)C(C(=O)C(=O)Nc1cc([N+](=O)[O-])ccc1[N+](=O)[O-])c1nc2ccc(C(=O)c3ccccc3)cc2[nH]c1=O` (centres undefined) was tested. Which TGI did it give?
A: > 100 µM

Q: What does the source list for `Cc1ccc(NC(=O)c2ccnc(N3CCCC3)c2)cc1-c1ccc(C(=O)NCC2CC2)cc1`?
A: GI50: > 25 µM; TGI: > 25 µM

Q: With `COC(=O)C#Cc1ccc([N+](=O)[O-])cc1` as the compound, how does the TGI read?
A: 11.9 µM

Q: How did the GI50 turn out when `c1ccc2cc(Cn3c(-c4ccc5ccccc5c4)[n+](Cc4ccc5ccccc5c4)c4ccccc43)ccc2c1` was run?
A: 1.18 µM

Q: What about the TGI of the same compound?
A: 2.43 µM

Q: For `COC1/C=C\OC2(C)Oc3c(C)c(O)c4c(O)c(c(CN(C)C)c(O)c4c3C2=O)NC(=O)/C(C)=C\C=C/C(C)C(O)C(C)C(O)C(C)C(OC(C)=O)C1C` (centres undefined), which TGI is on record?
A: > 100 µM

Q: Which TGI does the source give for `CNC1C(O)CC(OC2C/C=C(\C)C/C(C)=C/C=C/CCC(C)CNC(=O)/C=C/C=C/C2C)OC1C` (centres undefined) here?
A: 2.45 µM

Q: For `COc1cc(/C=N/NC2=NCCCN2)ccc1O`, which TGI is on record?
A: > 100 µM

Q: For `CCN(CC)c1ccc2c(c1)N=C1N=CC=CN1C2(c1ccc(N(C)C)cc1)c1ccc(N(C)C)cc1`, which TGI is on record?
A: 22.3 µM

Q: Which GI50 does the source give for `[N-]=[N+]=CC(=O)OCC(N)C(=O)O` (centres undefined) here?
A: 5.23 µM

Q: And the TGI?
A: > 100 µM

Q: `COC(=O)C1C(=O)O[C@@H](c2ccc(OC)cc2OC)C1C(=O)OC` (some centres undefined) was tested. Which TGI did it give?
A: > 100 µM

Q: Which TGI does the source give for `CC1(C)N=C(N)N=C(N)N1c1cccc(OCc2cccc([N+](=O)[O-])c2)c1` here?
A: > 100 µM

Q: Which results are given for `Cc1ccc(S(=O)(=O)n2cc(C(=O)C(=O)Nc3ccncc3)c3ccccc32)cc1`?
A: GI50: > 100 µM; TGI: > 100 µM

Q: `CC(Oc1ccc(Cl)cc1Cl)C(=O)NN1C(=O)CSC1c1ccc(Cl)cc1` (centres undefined) was tested. Which TGI did it give?
A: > 100 µM

Q: How did the TGI turn out when `O=C(NCC#CCO)C(F)(F)F` was run?
A: > 100 µM

Q: For `CSC(=N)N1N=C2c3ccccc3CC[C@@H]2[C@@H]1c1ccccc1`, which TGI is on record?
A: 35.7 µM

Q: Which TGI does the source give for `CCn1c(SCC(=O)NNC(=S)Nc2ccc(F)cc2)nc2ccccc2c1=O` here?
A: > 100 µM

Q: For `Cc1cc(C)n(-c2c(O)ccc(O)c2-n2nc(C)cc2C)n1`, which TGI is on record?
A: > 100 µM

Q: `Nc1nccc(Nc2ccc(S(N)(=O)=O)cc2)n1` was tested. Which TGI did it give?
A: > 100 µM

Q: With `CN1CCN(Cc2ccc(NC(=O)c3cncc(C#Cc4c(N)ncc5cc(F)ccc45)c3)cc2C(F)(F)F)CC1` as the compound, how does the GI50 read?
A: 2.82 µM

Q: And the TGI?
A: 9.54 µM

Q: `COc1ccc(NC(C)=O)cc1N1C(=O)/C(=C\c2cc(OC)c(OC)c(OC)c2)S(=O)(=O)C1c1ccccc1` (centres undefined) was tested. Which TGI did it give?
A: > 100 µM

Q: For `CC(=C(C(=O)O)C(=O)O)c1cc(-c2cccs2)cc(-c2ccc(Cl)cc2)c1O`, which TGI is on record?
A: 36.6 µM

Q: How did the TGI turn out when `CNC(=S)NNC1=NCCCCN1` was run?
A: > 100 µM

Q: For `O=C(/C=C/c1ccccc1)CCC1C(=O)NC(=O)NC1=O`, which TGI is on record?
A: > 100 µM

Q: Which TGI does the source give for `CC(C)N(c1cc2c(cc1F)c(=O)c(C(=O)O)cn2-c1ccc(N2CCN(C)CC2)cn1)C(C)C` here?
A: > 100 µM

Q: Which results are given for `Cc1cc(C)nc(SC2=C(Nc3cccc(Cl)c3)C(=O)N(Cc3ccccc3)C2=O)n1`?
A: GI50: > 170 µM; TGI: > 170 µM

Q: With `COc1ccccc1CNCc1nc2ccccc2[nH]1` as the compound, how does the TGI read?
A: > 100 µM

Q: With `O=C(/C=C\c1ccccc1-c1ccccc1)c1ccccc1` as the compound, how does the TGI read?
A: > 100 µM

Q: With `O=C(O)CCSc1nnc(COc2ccc(Cl)cc2)n1-c1ccccc1` as the compound, how does the TGI read?
A: > 100 µM

Q: With `O=C(CCCN1CC=C(n2c(=O)[nH]c3ccccc32)CC1)c1cccs1` as the compound, how does the TGI read?
A: > 100 µM

Q: Which TGI does the source give for `CCO/C(O)=C(/C(=N)N1CCCC1)C(=O)Nc1ccc(Cl)cc1` here?
A: > 100 µM

Q: How did the TGI turn out when `CCOC(=O)C1=C(C)N(NC(=O)c2ccccc2)C2(O)CCCC12C(=O)OCC` (centres undefined) was run?
A: > 100 µM
